PubChem BioAssay (NCI)
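Results reflect a 48-hour exposure of cells in 96-well plates to compound at five concentrations. GI50 is the concentration that inhibits growth by half. TGI marks complete inhibition of growth.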

Test system: NCI-H322M lung
Test: DTP human tumour cell line panel, 48 h

Compound | GI50 | TGI
COc1cc(-c2nc3ccc(C)cc3[nH]2)ccc1OCc1nnc(-c2ccc(Br)cc2)o1 | > 100 µM | > 100 µM
O=C(N=Nc1c(O)[nH]c2ccc(Br)cc12)c1ccc2nc(-c3ccc(Cl)cc3)[nH]c2c1 | > 38 µM | > 38 µM
COc1ccc(C(=O)/C=C/c2ccc(Cl)c(Cl)c2)cc1S(N)(=O)=O | 2.11 µM | 7.59 µM
CN(C)c1nc(NCCNS(=O)(=O)c2ccc(C(=O)/C=C/c3ccccc3)cc2)nc(Nc2ccc(F)cc2)n1 | 9.83 µM | 27.7 µM
COc1ccc(C(=O)/C=C/c2cccnc2)cc1S(N)(=O)=O | 12.2 µM | 23.9 µM
O=C(c1ccc(Cl)cc1)C1[C@H](c2ccccc2Br)[C@@H](c2ccccc2)NC12C(=O)Nc1ccc(Cl)cc12 (some centres undefined) | 9.56 µM | 21.5 µM
O=C(CNc1nc(-c2ccccc2)cs1)Nc1cccc(Cl)c1 | 12 µM | 57.5 µM
